# The other results are listed elsewhere or left out.
# B1: AAA (Anguilla anguilla), Q7SIC1 (protein)
# chain: VIPEGYTQENVAVRGKATQSAQLRGEHAANSEASNAIDGNRDSNFYHGSCTHSSGQANPWWRVDLLQVYTITSVTITNRGDCCGERISGAEINIGQHLASNGVNNPECSVIGSMATGETKTFHCPAPMIGRYVVTYLPTSESLHLCEVEVNVDKPAAA
# Legend:
# Assay in all cases: glycan array binding signal (z-score within array); higher = stronger binding
# Conditions in all cases: glycan notation: IUPAC condensed, linker removed
# [1] = molecular target: Gal(b1-3)[Neu5Ac(a2-6)]GlcNAc(a1-4)Gal(b1-4)Glc
# Method in brief: (§1)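 Columns mapping to the same glycan were averaged after glycan names were converted to IUPAC-condensed notation. The data come from 3228 arrays in the Consortium for Functional Glycomics database, limited to those with an available protein sequence. Binding is reported as a within-array Z-score averaged across arrays of one protein sequence and across linkers.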
# [2] = molecular target: Gal(b1-3)[Neu5Ac(a2-6)]GlcNAc(b1-4)Gal(b1-4)Glc
# Method in brief: as §1
# [3] = molecular target: Gal(b1-3)[Neu5Ac(b2-6)]GalNAc
# Method in brief: as §1
# [4] = molecular target: Gal(b1-3)[Neu5Ac(b2-6)]GlcNAc
# Method in brief: as §1
# Gal(b1-4)Gal = molecular target: Gal(b1-4)Gal
# Method in brief: as §1
# [5] = molecular target: Gal(b1-4)GalNAc(a1-3)[Fuc(a1-2)]Gal(b1-4)GlcNAc
# Method in brief: as §1
# [6] = molecular target: Gal(b1-4)GalNAc(b1-3)[Fuc(a1-2)]Gal(b1-4)GlcNAc
# Method in brief: as §1
# Gal(b1-4)Glc = molecular target: Gal(b1-4)Glc
# Method in brief: as §1
# Gal(b1-4)Glc6S = molecular target: Gal(b1-4)Glc6S
# Method in brief: as §1
# Gal(b1-4)GlcNAc = molecular target: Gal(b1-4)GlcNAc
# Method in brief: as §1
# [7] = molecular target: Gal(b1-4)GlcNAc(a1-6)Gal(b1-4)GlcNAc
# Method in brief: as §1
# Gal(b1-4)GlcNAc(b1-2)Man = molecular target: Gal(b1-4)GlcNAc(b1-2)Man
# Method in brief: as §1
# [8] = molecular target: Gal(b1-4)GlcNAc(b1-2)Man(a1-3)Man(b1-4)GlcNAc(b1-4)GlcNAc
# Method in brief: as §1
# [9] = molecular target: Gal(b1-4)GlcNAc(b1-2)Man(a1-3)[Gal(b1-4)GlcNAc(b1-2)Man(a1-6)]Man(b1-4)GlcNAc(b1-4)GlcNAc
# Method in brief: as §1
# [10] = molecular target: Gal(b1-4)GlcNAc(b1-2)Man(a1-3)[Gal(b1-4)GlcNAc(b1-2)Man(a1-6)]Man(b1-4)GlcNAc(b1-4)[Fuc(a1-6)]GlcNAc
# Method in brief: as §1
# [11] = molecular target: Gal(b1-4)GlcNAc(b1-2)Man(a1-3)[Gal(b1-4)GlcNAc(b1-2)Man(a1-6)][Gal(b1-4)GlcNAc(b1-4)]Man(b1-4)GlcNAc(b1-4)[Fuc(a1-6)]GlcNAc
# Method in brief: as §1
# [12] = molecular target: Gal(b1-4)GlcNAc(b1-2)Man(a1-3)[Gal(b1-4)GlcNAc(b1-2)Man(a1-6)][GlcNAc(b1-4)]Man(b1-4)GlcNAc(b1-4)[Fuc(a1-6)]GlcNAc
# Method in brief: as §1
# [13] = molecular target: Gal(b1-4)GlcNAc(b1-2)Man(a1-3)[GlcNAc(b1-2)Man(a1-6)]Man(b1-4)GlcNAc(b1-4)GlcNAc
# Method in brief: as §1
# [14] = molecular target: Gal(b1-4)GlcNAc(b1-2)Man(a1-3)[GlcNAc(b1-4)][Gal(b1-4)GlcNAc(b1-2)Man(a1-6)]Man(b1-4)GlcNAc(b1-4)GlcNAc
# Method in brief: as §1
# [15] = molecular target: Gal(b1-4)GlcNAc(b1-2)Man(a1-3)[Man(a1-6)]Man(b1-4)GlcNAc(b1-4)GlcNAc
# Method in brief: as §1
# [16] = molecular target: Gal(b1-4)GlcNAc(b1-2)Man(a1-6)Man(b1-4)GlcNAc(b1-4)GlcNAc
# Method in brief: as §1
# [17] = molecular target: Gal(b1-4)GlcNAc(b1-2)Man(a1-6)[GlcNAc(b1-2)Man(a1-3)]Man(b1-4)GlcNAc(b1-4)GlcNAc
# Method in brief: as §1
# [18] = molecular target: Gal(b1-4)GlcNAc(b1-2)Man(a1-6)[Man(a1-3)]Man(b1-4)GlcNAc(b1-4)GlcNAc
# Method in brief: as §1
# [19] = molecular target: Gal(b1-4)GlcNAc(b1-2)[Gal(b1-4)GlcNAc(b1-4)]Man(a1-3)[Gal(b1-4)GlcNAc(b1-2)Man(a1-6)]Man(b1-4)GlcNAc(b1-4)GlcNAc
# Method in brief: as §1
# [20] = molecular target: Gal(b1-4)GlcNAc(b1-2)[Gal(b1-4)GlcNAc(b1-4)]Man(a1-3)[Gal(b1-4)GlcNAc(b1-2)[Gal(b1-4)GlcNAc(b1-6)]Man(a1-6)]Man(b1-4)GlcNAc(b1-4)GlcNAc
# Method in brief: as §1
# [21] = molecular target: Gal(b1-4)GlcNAc(b1-2)[Gal(b1-4)GlcNAc(b1-4)]Man(a1-3)[GlcNAc(b1-4)][Gal(b1-4)GlcNAc(b1-2)Man(a1-6)]Man(b1-4)GlcNAc(b1-4)GlcNAc
# Method in brief: as §1
# [22] = molecular target: Gal(b1-4)GlcNAc(b1-2)[Gal(b1-4)GlcNAc(b1-4)]Man(a1-3)[GlcNAc(b1-4)][Gal(b1-4)GlcNAc(b1-2)[Gal(b1-4)GlcNAc(b1-6)]Man(a1-6)]Man(b1-4)GlcNAc(b1-4)GlcNAc
# Method in brief: as §1
# [23] = molecular target: Gal(b1-4)GlcNAc(b1-2)[Gal(b1-4)GlcNAc(b1-6)]Man(a1-6)[Gal(b1-4)GlcNAc(b1-2)Man(a1-3)]Man(b1-4)GlcNAc(b1-4)GlcNAc
# Method in brief: as §1
# [24] = molecular target: Gal(b1-4)GlcNAc(b1-2)[Gal(b1-4)GlcNAc(b1-6)]Man(a1-6)[Gal(b1-4)GlcNAc(b1-2)Man(a1-3)]Man(b1-4)GlcNAc(b1-4)[Fuc(a1-6)]GlcNAc
# Method in brief: as §1
# [25] = molecular target: Gal(b1-4)GlcNAc(b1-2)[Gal(b1-4)GlcNAc(b1-6)]Man(a1-6)[GlcNAc(b1-4)][Gal(b1-4)GlcNAc(b1-2)Man(a1-3)]Man(b1-4)GlcNAc(b1-4)GlcNAc
# Method in brief: as §1
# [26] = molecular target: Gal(b1-4)GlcNAc(b1-2)[Gal(b1-4)GlcNAc(b1-6)]Man(a1-6)[GlcNAc(b1-4)][Gal(b1-4)GlcNAc(b1-2)[Gal(b1-4)GlcNAc(b1-4)]Man(a1-3)]Man(b1-4)GlcNAc(b1-4)[Fuc(a1-6)]GlcNAc
# Method in brief: as §1
# [27] = molecular target: Gal(b1-4)GlcNAc(b1-3)Gal(b1-3)GalNAc
# Method in brief: as §1
# [28] = molecular target: Gal(b1-4)GlcNAc(b1-3)Gal(b1-3)GlcNAc
# Method in brief: as §1
# [29] = molecular target: Gal(b1-4)GlcNAc(b1-3)Gal(b1-4)Glc
# Method in brief: as §1
# [30] = molecular target: Gal(b1-4)GlcNAc(b1-3)Gal(b1-4)GlcNAc
# Method in brief: as §1
# [31] = molecular target: Gal(b1-4)GlcNAc(b1-3)Gal(b1-4)GlcNAc(b1-2)Man(a1-3)[Gal(b1-4)GlcNAc(b1-3)Gal(b1-4)GlcNAc(b1-2)Man(a1-6)]Man(b1-4)GlcNAc(b1-4)GlcNAc
# Method in brief: as §1
# [32] = molecular target: Gal(b1-4)GlcNAc(b1-3)Gal(b1-4)GlcNAc(b1-2)Man(a1-3)[Gal(b1-4)GlcNAc(b1-3)Gal(b1-4)GlcNAc(b1-2)Man(a1-6)]Man(b1-4)GlcNAc(b1-4)[Fuc(a1-6)]GlcNAc
# Method in brief: as §1
# [33] = molecular target: Gal(b1-4)GlcNAc(b1-3)Gal(b1-4)GlcNAc(b1-2)[Gal(b1-4)GlcNAc(b1-3)Gal(b1-4)GlcNAc(b1-6)]Man(a1-6)[Gal(b1-4)GlcNAc(b1-3)Gal(b1-4)GlcNAc(b1-2)Man(a1-3)]Man(b1-4)GlcNAc(b1-4)GlcNAc
# Method in brief: as §1
# [34] = molecular target: Gal(b1-4)GlcNAc(b1-3)Gal(b1-4)GlcNAc(b1-2)[Gal(b1-4)GlcNAc(b1-3)Gal(b1-4)GlcNAc(b1-6)]Man(a1-6)[Gal(b1-4)GlcNAc(b1-3)Gal(b1-4)GlcNAc(b1-2)Man(a1-3)]Man(b1-4)GlcNAc(b1-4)[Fuc(a1-6)]GlcNAc
# Method in brief: as §1
# [35] = molecular target: Gal(b1-4)GlcNAc(b1-3)Gal(b1-4)GlcNAc(b1-3)Gal(b1-4)GlcNAc
# Method in brief: as §1
# [36] = molecular target: Gal(b1-4)GlcNAc(b1-3)Gal(b1-4)GlcNAc(b1-3)Gal(b1-4)GlcNAc(b1-2)Man(a1-3)[Gal(b1-4)GlcNAc(b1-3)Gal(b1-4)GlcNAc(b1-3)Gal(b1-4)GlcNAc(b1-2)Man(a1-6)]Man(b1-4)GlcNAc(b1-4)GlcNAc
# Method in brief: as §1
# [37] = molecular target: Gal(b1-4)GlcNAc(b1-3)Gal(b1-4)GlcNAc(b1-3)Gal(b1-4)GlcNAc(b1-2)Man(a1-3)[Gal(b1-4)GlcNAc(b1-3)Gal(b1-4)GlcNAc(b1-3)Gal(b1-4)GlcNAc(b1-2)Man(a1-6)]Man(b1-4)GlcNAc(b1-4)[Fuc(a1-6)]GlcNAc
# Method in brief: as §1
# [38] = molecular target: Gal(b1-4)GlcNAc(b1-3)Gal(b1-4)GlcNAc(b1-3)Gal(b1-4)GlcNAc(b1-2)[Gal(b1-4)GlcNAc(b1-3)Gal(b1-4)GlcNAc(b1-3)Gal(b1-4)GlcNAc(b1-6)]Man(a1-6)[Gal(b1-4)GlcNAc(b1-3)Gal(b1-4)GlcNAc(b1-3)Gal(b1-4)GlcNAc(b1-2)Man(a1-3)]Man(b1-4)GlcNAc(b1-4)[Fuc(a1-6)]GlcNAc
# Method in brief: as §1
# [39] = molecular target: Gal(b1-4)GlcNAc(b1-3)Gal(b1-4)GlcNAc(b1-3)Gal(b1-4)GlcNAc(b1-3)Gal(b1-4)GlcNAc(b1-2)Man(a1-3)[Gal(b1-4)GlcNAc(b1-3)Gal(b1-4)GlcNAc(b1-3)Gal(b1-4)GlcNAc(b1-3)Gal(b1-4)GlcNAc(b1-2)Man(a1-6)]Man(b1-4)GlcNAc(b1-4)GlcNAc
# Method in brief: as §1
# [40] = molecular target: Gal(b1-4)GlcNAc(b1-3)Gal(b1-4)GlcNAc(b1-3)Gal(b1-4)GlcNAc(b1-3)Gal(b1-4)GlcNAc(b1-2)Man(a1-3)[Gal(b1-4)GlcNAc(b1-3)Gal(b1-4)GlcNAc(b1-3)Gal(b1-4)GlcNAc(b1-3)Gal(b1-4)GlcNAc(b1-2)Man(a1-6)]Man(b1-4)GlcNAc(b1-4)[Fuc(a1-6)]GlcNAc
# Method in brief: as §1
binder,measurement,setting,value
B1,glycan array binding signal (z-score),[1],-0.329
same,glycan array binding signal (z-score),[2],-0.118
same,glycan array binding signal (z-score),[3],-0.242
same,glycan array binding signal (z-score),[4],-0.171
same,glycan array binding signal (z-score),Gal(b1-4)Gal,-0.226
same,glycan array binding signal (z-score),[5],-0.218
same,glycan array binding signal (z-score),[6],-0.22
same,glycan array binding signal (z-score),Gal(b1-4)Glc,-0.282
same,glycan array binding signal (z-score),Gal(b1-4)Glc6S,0.091
same,glycan array binding signal (z-score),Gal(b1-4)GlcNAc,-0.211
same,glycan array binding signal (z-score),[7],-0.212
same,glycan array binding signal (z-score),Gal(b1-4)GlcNAc(b1-2)Man,-0.202
same,glycan array binding signal (z-score),[8],-0.213
same,glycan array binding signal (z-score),[9],-0.354
same,glycan array binding signal (z-score),[10],-0.099
same,glycan array binding signal (z-score),[11],-0.155
same,glycan array binding signal (z-score),[12],-0.269
same,glycan array binding signal (z-score),[13],-0.086
same,glycan array binding signal (z-score),[14],-0.238
same,glycan array binding signal (z-score),[15],-0.137
same,glycan array binding signal (z-score),[16],-0.168
same,glycan array binding signal (z-score),[17],-0.24
same,glycan array binding signal (z-score),[18],-0.182
same,glycan array binding signal (z-score),[19],-0.16
same,glycan array binding signal (z-score),[20],-0.191
same,glycan array binding signal (z-score),[21],-0.275
same,glycan array binding signal (z-score),[22],-0.276
same,glycan array binding signal (z-score),[23],-0.402
same,glycan array binding signal (z-score),[24],-0.181
same,glycan array binding signal (z-score),[25],-0.252
same,glycan array binding signal (z-score),[26],-0.257
same,glycan array binding signal (z-score),[27],-0.111
same,glycan array binding signal (z-score),[28],0.13
same,glycan array binding signal (z-score),[29],-0.16
same,glycan array binding signal (z-score),[30],-0.248
same,glycan array binding signal (z-score),[31],0.804
same,glycan array binding signal (z-score),[32],0.17
same,glycan array binding signal (z-score),[33],0.103
same,glycan array binding signal (z-score),[34],-0.092
same,glycan array binding signal (z-score),[35],-0.301
same,glycan array binding signal (z-score),[36],1.2
same,glycan array binding signal (z-score),[37],-0.065
same,glycan array binding signal (z-score),[38],-0.088
same,glycan array binding signal (z-score),[39],-0.104
same,glycan array binding signal (z-score),[40],0.031

# Source: the supplement of paper PMC8728848
